Data published in the supplement of paper PMC3334620.
Over roughly 33,000 sequences, “E-score (-0.5 to 0.5)” has its median near -0.053; the highest 2% begin near 0.37. Some of the results follow.

What follows are sequences tested against Hap1 (UniProt P0CE41) (assay: PBM E-score (8-mer binding enrichment) (E-score (-0.5 to 0.5)); higher = stronger / more preferred TF binding; most listed sequences are background and not binding sites). Conditions: protein concentration: 200 nM; construct: GST-DNA-binding domain.
Procedure, shortened: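 E-scores (a modified Wilcoxon-Mann-Whitney statistic) were assigned by the Universal PBM Analysis Suite to every ungapped eight-base word pooled with its reverse complement. The input came from universal all-10-mer Agilent arrays made double-stranded by primer extension and probed with GST-tagged yeast transcription factors at about 100-200 nM. Fluorescent anti-GST detected bound protein, and masliner normalised the scans.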

UniProt P0CE41, sequence (P0CE41 whole entry, the tested form may be a part): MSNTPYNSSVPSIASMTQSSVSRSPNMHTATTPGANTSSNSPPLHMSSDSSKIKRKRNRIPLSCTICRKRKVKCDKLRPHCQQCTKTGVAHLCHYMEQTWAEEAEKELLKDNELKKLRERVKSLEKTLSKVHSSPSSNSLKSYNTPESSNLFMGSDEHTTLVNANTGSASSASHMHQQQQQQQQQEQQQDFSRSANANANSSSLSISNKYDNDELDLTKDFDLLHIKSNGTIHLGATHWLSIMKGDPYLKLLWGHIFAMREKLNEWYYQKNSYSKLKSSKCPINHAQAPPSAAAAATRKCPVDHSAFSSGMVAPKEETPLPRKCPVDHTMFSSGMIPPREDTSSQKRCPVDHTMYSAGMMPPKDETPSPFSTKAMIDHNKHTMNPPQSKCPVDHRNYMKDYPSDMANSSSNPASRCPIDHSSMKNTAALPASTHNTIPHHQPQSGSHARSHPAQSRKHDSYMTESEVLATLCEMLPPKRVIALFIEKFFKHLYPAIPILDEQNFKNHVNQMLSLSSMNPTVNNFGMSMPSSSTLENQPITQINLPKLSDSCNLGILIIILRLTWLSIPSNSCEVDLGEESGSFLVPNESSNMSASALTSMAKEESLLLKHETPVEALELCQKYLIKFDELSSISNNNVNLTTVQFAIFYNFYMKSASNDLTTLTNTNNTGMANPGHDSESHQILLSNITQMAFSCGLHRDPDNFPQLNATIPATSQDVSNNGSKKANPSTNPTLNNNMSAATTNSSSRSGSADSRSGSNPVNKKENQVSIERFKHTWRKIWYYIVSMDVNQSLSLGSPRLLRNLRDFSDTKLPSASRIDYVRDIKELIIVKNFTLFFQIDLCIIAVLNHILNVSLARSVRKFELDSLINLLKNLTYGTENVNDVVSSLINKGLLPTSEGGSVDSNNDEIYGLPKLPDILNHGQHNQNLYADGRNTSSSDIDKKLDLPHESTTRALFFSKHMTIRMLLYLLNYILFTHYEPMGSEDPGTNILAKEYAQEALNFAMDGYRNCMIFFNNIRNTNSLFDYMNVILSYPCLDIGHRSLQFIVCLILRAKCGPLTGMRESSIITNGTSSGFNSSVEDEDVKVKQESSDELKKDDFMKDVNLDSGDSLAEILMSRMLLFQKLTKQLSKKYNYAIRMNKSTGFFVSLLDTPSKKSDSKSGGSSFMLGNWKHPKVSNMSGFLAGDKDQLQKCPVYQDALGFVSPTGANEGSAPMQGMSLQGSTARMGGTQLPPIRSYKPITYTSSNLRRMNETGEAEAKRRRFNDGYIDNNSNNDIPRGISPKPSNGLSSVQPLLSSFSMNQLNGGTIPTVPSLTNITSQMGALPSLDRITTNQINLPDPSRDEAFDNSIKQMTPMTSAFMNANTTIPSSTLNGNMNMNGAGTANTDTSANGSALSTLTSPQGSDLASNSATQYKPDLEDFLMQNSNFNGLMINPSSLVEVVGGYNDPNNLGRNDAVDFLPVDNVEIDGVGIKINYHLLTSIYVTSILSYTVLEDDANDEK

Sequence | PBM E-score
AGTATTTG | -0.169
GATGACGC | -0.0801
AGAGCAAC | -0.317
CGCATGGC | 0.184
GAAAGACA | -0.0415
CGGCAATC | 0.284
CTCATTCC | 0.139
ACATACCA | -0.0949
GGTCGGGA | 0.277
AACGTTAT | -0.0186
ATTGCGGG | 0.273
CCGGATCG | 0.347
ACGTAACT | -0.21
AAGACCGA | 0.413
AGCGCTAT | 0.0782
CGTTCTGA | -0.0496
GCAGTTCA | -0.0429
AGAACTCG | 0.0147
CAGGTTTC | -0.054
CCGGGTTA | 0.37
AGTCACGA | -0.166
CGTTACTA | -0.037
CCGGAGGC | 0.286
CTCTCACA | -0.193
GTGTGCCA | -0.0579

Sequence | PBM E-score
CTGTGAGA | -0.277
AAGCGCTC | 0.0583
ATTCCTAC | -0.115
AAGTCAAT | -0.106
ATTATCCG | 0.391
TCAAACGA | -0.155
GACATATA | 0.0307
ATTCATTC | -0.019
CATTTTAC | 0.15
AGGCCCCT | -0.0673
TACTGCGA | -0.167
CACGGACA | 0.312
GAGACTTA | -0.147
AGCCATAA | -0.151
AGACATCC | -0.03
CTCCATGA | -0.0786
AAGCGTAA | 0.0257
CTTATGCA | -0.246
GTAAGTAC | 0.0984
CTTCGGCA | 0.264
AGGTTCTC | 0.0465
ACCAAATC | -0.146
AGATTACC | -0.00083
AGTGAGGC | -0.0972
CCACCCAC | -0.127

Sequence | PBM E-score
GCCTGCTA | -0.152
AGCACGAA | 0.0609
TAATTGCA | -0.0806
ATACCGCC | 0.291
GTCTTGTA | -0.123
ATCTGGCC | 0.127
GTCTAGAC | -0.269
CCTCCCAC | -0.0529
TAATGGTA | -0.0142
TAGTAACA | -0.088
AAATTGTA | -0.104
ACGAGTTA | -0.15
CCCCAAGA | -0.0568
GCAGCTTA | -0.171
CGCTATTC | 0.0696
CAGCCGTC | 0.0371
AATGCCTC | -0.116
ATTGTATG | -0.0192
TGTATACA | -0.0464
GTGCATTA | -0.214
GCAGCCTA | -0.226
ATTTAAGC | 0.0261
CGAATCCA | 0.0171
TCCCTTCA | -0.318
ACACCCAG | -0.131

Sequence | PBM E-score
AATAAGGG | -0.24
CTATCCAA | -0.155
AACATCGG | 0.294
CACATCGG | 0.224
GGCACCTA | 0.0604
AGCATCTA | -0.207
AGAGAATA | 0.115
AAACATTG | -0.0851
AGTAATTC | 0.16
AGTCGAGC | -0.26
CATATGTA | -0.355
GACGTAGC | -0.00077
ACGCTACG | 0.021
CTGTCCTC | -0.16
ATAGAGCA | -0.17
GTCAGGTA | -0.0611
CGTAAACA | 0.163
GTATGTGA | -0.131
CTTCATTA | -0.257
AGCTGACG | -0.113
GGACCAAC | 0.142
CGACATGA | 0.0551
TAGCTTCA | -0.271
CTACTTCC | 0.158
TAGTGATA | -0.243

Sequence | PBM E-score
CGAGGTAC | -0.113
AAATGGGC | -0.0315
ATATTCTA | -0.129
GGAGATGA | 0.133
CGCTACCA | 0.0305
AAACGAAC | -0.13
TACGAGCA | -0.124
CAACACCA | -0.237
GGTGATGA | -0.0753
GGTCAACA | 0.034
CATTTTGC | -0.00097
CATCAACC | -0.0425
AACCAGCG | 0.0362
AGGGATAC | -0.181
GTTGCTGA | -0.108
CCTTTTCC | -0.0302
ACAAACAC | 0.116
AGCGCATG | -0.2
CATTAGCG | 0.0582
AGCAGAAA | -0.0575
ATGCTCAG | -0.189
AGAGATGA | -0.136
CTCAATAC | 0.0506
GTTCATGA | -0.0139
ATGAAGCA | -0.161

Sequence | PBM E-score
ACTTTGAC | -0.21
GATTCCTA | 0.00704
ACTAGAAA | -0.112
AACCCAAC | -0.149
TAGTCCCA | -0.284
TGATCCAA | -0.104
ATTGCGTA | -0.0376
AAGTGGCC | 0.0773
AAGTACTA | 0.0747
AATGACGT | -0.0933
CATCCGCG | 0.25
ATAGCTAT | 0.0675
CGTAATGA | -0.0241
ATAAGGAT | -0.238
ACAGCTTA | -0.264
CTTGAAGA | -0.216
ACTATACA | -0.124
CGAGGGTA | 0.076
TAATATGA | 0.0686
CTCGAGAA | -0.235
AGTAGTTA | -0.113
GTAAAACA | -0.148
AGTCGGAT | 0.361
CGCTATGA | 0.099
ATGCTAGG | -0.0899

Sequence | PBM E-score
GCTGGTAA | -0.181
CGGCATCA | 0.165
AAGTCATT | -0.259
CAATGAGC | 0.0272
TATAAAAA | 0.142
AGAGGTAG | -0.189
CGGCGTCC | 0.231
CGAGCCCA | -0.125
AGTCGCCC | -0.0935
ACCGCTAC | 0.237
CGCAGATC | -0.0262
CGACTACG | -0.0071
CTGATACA | -0.0606
AGCCACAC | -0.234
AAACTCAT | 0.0468
CGGCGCCG | 0.406
TAAACTCA | 0.0254
CGAGTCAA | -0.125
CTAGACTC | -0.205
ATGCATGA | -0.109
AAGCCTAA | -0.0872
ATACCGTC | 0.0985
